Laboratory results from the supplement of paper PMC12217912.
The list shows a part of the results. The full chains were built here from the parent and the listed change. Inactive controls read about 0.05.

B1: TEV protease; numbered along this chain (parent)
chain: MGESLFKGPRDYNPISSSICHLTNESDGHTTSLYGIGFGPFIITNKHLFRRNNGTLVVQSLHGVFKVKDTTTLQQHLVDGRDMIIIRMPKDFPPFPQKLKFREPQREERICLVTTNFQTKSMSSMVSDTSCTFPSGDGIFWKHWIQTKDGQCGSPLVSTRDGFIVGIHSASNFTNTNNYFTSVPKNFMELLTNQEAQQWVSGWRLNADSVLWGGHKVFMVKPEEPFQPVKEATQL

Variants of: B1
Assay: raw area under fraction-flipped curve 0-4 h after induction (AUC4h, not background-subtracted), DNA-recorder readout of cleavage of the substrate (dimensionless); higher = more cleavage of the substrate by the protease variant
Conditions: temperature: 34 °C; time window: 0-4 h after rhamnose induction
Protocol: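 In vivo DNA recorder in E. coli TOP10(DE3) ΔrhaA at 34 °C. Each TEVp single-site mutant (parent TEVp 0) is paired with a single-site variant of the 7-mer TEVs (canonical ENLYFQ|S). The substrate sits between flexible linkers in a Bxb1-sfGFP-TEVs-SsrA fusion, so cleavage stabilises Bxb1 and speeds flipping of a recombination array, read by NGS. The value is the raw area under the fraction-flipped curve over 0-4 h after rhamnose induction (AUC4h), with ≥20 reads per time point. It is not background-subtracted; inactive controls average about 0.047.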
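Also: Bxb1 expression induced with 0.2% (w/v) L-rhamnose at OD600 near 0.5, cultures sampled hourly, flipped fraction per protease–substrate barcode pair counted by paired-end Illumina sequencing.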

Variant	area with substrate ENLYFAS	area with substrate ENLYFES	area with substrate ENLYFFS	area with substrate ENLYFGS	area with substrate ENLYFHS	area with substrate ENLYFIS	area with substrate ENLYFKS	area with substrate ENLYFLS	area with substrate ENLYFMS	area with substrate ENLYFNS	area with substrate ENLYFPS	area with substrate ENLYFSS	area with substrate ENLYFTS	area with substrate ENLYFWS	area with substrate ENLYFYS	area with substrate ENLYFRS	area with substrate ENLYFVS	area with substrate ENLYFCS	area with substrate ENLYFDS
MGESLFKGPRDYNPISSSICHLTNESDGHTTSLYGYGFGPFIITNKHLFRRNNGTLVVQSLHGVFKVKDTTTLQQHLVDGRDMIIIRMPKDFPPFPQKLKFREPQREERICLVTTNFQTKSMSSMVSDTSCTFPSGDGIFWKHWIQTKDGQCGSPLVSTRDGFIVGIHSASNFTNTNNYFTSVPKNFMELLTNQEAQQWVSGWRLNADSVLWGGHKVFMVKPEEPFQPVKEATQL [I36Y]	0.0288	0.0506	0.0548	0.0368	0.0565	0.0438	0.0515	0.0501	0.0562	0.0599	0.0378	0.0438	0.0523	0.0484	0.0478	–	–	–	–
MGESLFKGPRDYNPISSSICHLTNESDGHTTSLYGTGFGPFIITNKHLFRRNNGTLVVQSLHGVFKVKDTTTLQQHLVDGRDMIIIRMPKDFPPFPQKLKFREPQREERICLVTTNFQTKSMSSMVSDTSCTFPSGDGIFWKHWIQTKDGQCGSPLVSTRDGFIVGIHSASNFTNTNNYFTSVPKNFMELLTNQEAQQWVSGWRLNADSVLWGGHKVFMVKPEEPFQPVKEATQL [I36T]	0.0294	0.0675	0.0703	–	0.0452	0.0509	0.0531	–	0.0463	0.06	0.048	0.0557	0.0553	0.053	–	0.0489	0.0099	–	–
MGESLFKGPRDYNPISSSICHLTNESDGHTTSLYGHGFGPFIITNKHLFRRNNGTLVVQSLHGVFKVKDTTTLQQHLVDGRDMIIIRMPKDFPPFPQKLKFREPQREERICLVTTNFQTKSMSSMVSDTSCTFPSGDGIFWKHWIQTKDGQCGSPLVSTRDGFIVGIHSASNFTNTNNYFTSVPKNFMELLTNQEAQQWVSGWRLNADSVLWGGHKVFMVKPEEPFQPVKEATQL [I36H]	0.0538	–	0.0394	–	0.0336	0.0359	0.0515	–	0.0422	–	0.0459	–	–	0.0321	0.0361	0.0274	0.0116	0.0075	–
MGESLFKGPRDYNPISSSICHLTNESDGHTTSLYGSGFGPFIITNKHLFRRNNGTLVVQSLHGVFKVKDTTTLQQHLVDGRDMIIIRMPKDFPPFPQKLKFREPQREERICLVTTNFQTKSMSSMVSDTSCTFPSGDGIFWKHWIQTKDGQCGSPLVSTRDGFIVGIHSASNFTNTNNYFTSVPKNFMELLTNQEAQQWVSGWRLNADSVLWGGHKVFMVKPEEPFQPVKEATQL [I36S]	0.0362	0.0591	0.0622	0.0426	–	0.0479	0.0597	–	0.0584	0.0541	0.0504	0.0483	0.0443	0.0484	0.0558	0.0336	0.042	0.0446	0.0592
MGESLFKGPRDYNPISSSICHLTNESDGHTTSLYGMGFGPFIITNKHLFRRNNGTLVVQSLHGVFKVKDTTTLQQHLVDGRDMIIIRMPKDFPPFPQKLKFREPQREERICLVTTNFQTKSMSSMVSDTSCTFPSGDGIFWKHWIQTKDGQCGSPLVSTRDGFIVGIHSASNFTNTNNYFTSVPKNFMELLTNQEAQQWVSGWRLNADSVLWGGHKVFMVKPEEPFQPVKEATQL [I36M]	0.062	0.0683	0.0617	0.0342	–	0.0511	0.0546	0.0678	0.0619	0.0638	0.061	0.0702	0.0554	0.0509	0.052	0.0564	0.067	0.0357	0.0425
MGESLFKGPRDYNPISSSICHLTNESDGHTTSLYGWGFGPFIITNKHLFRRNNGTLVVQSLHGVFKVKDTTTLQQHLVDGRDMIIIRMPKDFPPFPQKLKFREPQREERICLVTTNFQTKSMSSMVSDTSCTFPSGDGIFWKHWIQTKDGQCGSPLVSTRDGFIVGIHSASNFTNTNNYFTSVPKNFMELLTNQEAQQWVSGWRLNADSVLWGGHKVFMVKPEEPFQPVKEATQL [I36W]	0.0527	0.0633	0.0634	0.058	–	0.048	0.0461	–	0.0494	0.0637	0.0712	–	0.046	0.0382	0.0571	–	–	0.0517	0.0552
MGESLFKGPRDYNPISSSICHLTNESDGHTTSLYGITFGPFIITNKHLFRRNNGTLVVQSLHGVFKVKDTTTLQQHLVDGRDMIIIRMPKDFPPFPQKLKFREPQREERICLVTTNFQTKSMSSMVSDTSCTFPSGDGIFWKHWIQTKDGQCGSPLVSTRDGFIVGIHSASNFTNTNNYFTSVPKNFMELLTNQEAQQWVSGWRLNADSVLWGGHKVFMVKPEEPFQPVKEATQL [G37T]	0.0464	0.0615	–	–	0.0418	0.0479	0.0493	–	0.0597	0.046	0.0645	–	0.0454	0.0346	0.056	0.0557	–	–	0.0598
MGESLFKGPRDYNPISSSICHLTNESDGHTTSLYGIIFGPFIITNKHLFRRNNGTLVVQSLHGVFKVKDTTTLQQHLVDGRDMIIIRMPKDFPPFPQKLKFREPQREERICLVTTNFQTKSMSSMVSDTSCTFPSGDGIFWKHWIQTKDGQCGSPLVSTRDGFIVGIHSASNFTNTNNYFTSVPKNFMELLTNQEAQQWVSGWRLNADSVLWGGHKVFMVKPEEPFQPVKEATQL [G37I]	0.0693	0.0541	0.0539	0.041	0.0599	0.052	–	–	0.0525	0.0569	0.0638	0.0543	0.0556	0.0507	–	0.0663	0.0631	0.0487	0.0543
MGESLFKGPRDYNPISSSICHLTNESDGHYTSLYGIGFGPFIITNKHLFRRNNGTLVVQSLHGVFKVKDTTTLQQHLVDGRDMIIIRMPKDFPPFPQKLKFREPQREERICLVTTNFQTKSMSSMVSDTSCTFPSGDGIFWKHWIQTKDGQCGSPLVSTRDGFIVGIHSASNFTNTNNYFTSVPKNFMELLTNQEAQQWVSGWRLNADSVLWGGHKVFMVKPEEPFQPVKEATQL [T30Y]	0.0636	0.0688	–	0.0361	0.06	0.0623	0.0476	0.0355	0.0496	0.073	0.0575	–	0.0536	0.0615	0.0543	0.0681	–	0.0657	0.0514
MGESLFKGPRDYNPISSSICHLTNESDGHLTSLYGIGFGPFIITNKHLFRRNNGTLVVQSLHGVFKVKDTTTLQQHLVDGRDMIIIRMPKDFPPFPQKLKFREPQREERICLVTTNFQTKSMSSMVSDTSCTFPSGDGIFWKHWIQTKDGQCGSPLVSTRDGFIVGIHSASNFTNTNNYFTSVPKNFMELLTNQEAQQWVSGWRLNADSVLWGGHKVFMVKPEEPFQPVKEATQL [T30L]	0.0501	0.0558	0.0707	–	–	0.0634	–	0.0658	0.0597	0.0499	0.066	0.0616	0.0421	0.0597	0.0497	0.0385	0.0685	0.0595	0.053
MGESLFKGPRDYNPISSSICHLTNESDGHTTSIYGIGFGPFIITNKHLFRRNNGTLVVQSLHGVFKVKDTTTLQQHLVDGRDMIIIRMPKDFPPFPQKLKFREPQREERICLVTTNFQTKSMSSMVSDTSCTFPSGDGIFWKHWIQTKDGQCGSPLVSTRDGFIVGIHSASNFTNTNNYFTSVPKNFMELLTNQEAQQWVSGWRLNADSVLWGGHKVFMVKPEEPFQPVKEATQL [L33I]	0.128	0.0606	0.0761	0.0481	0.0571	0.0553	0.0618	0.0627	–	0.0495	0.0586	0.0642	–	0.0642	0.0399	0.0612	0.0529	0.0732	0.0626
MGESLFKGPRDYNPISSSICHLTNESDGHTTSMYGIGFGPFIITNKHLFRRNNGTLVVQSLHGVFKVKDTTTLQQHLVDGRDMIIIRMPKDFPPFPQKLKFREPQREERICLVTTNFQTKSMSSMVSDTSCTFPSGDGIFWKHWIQTKDGQCGSPLVSTRDGFIVGIHSASNFTNTNNYFTSVPKNFMELLTNQEAQQWVSGWRLNADSVLWGGHKVFMVKPEEPFQPVKEATQL [L33M]	0.0542	0.0722	0.0749	–	0.0714	0.058	0.0672	0.061	0.0654	0.0637	0.0637	0.056	0.0376	0.0625	–	0.0676	–	0.0609	0.0587
MGESLFKGPRDYNPISSSICHLTNESDGHTTSLYGIGCGPFIITNKHLFRRNNGTLVVQSLHGVFKVKDTTTLQQHLVDGRDMIIIRMPKDFPPFPQKLKFREPQREERICLVTTNFQTKSMSSMVSDTSCTFPSGDGIFWKHWIQTKDGQCGSPLVSTRDGFIVGIHSASNFTNTNNYFTSVPKNFMELLTNQEAQQWVSGWRLNADSVLWGGHKVFMVKPEEPFQPVKEATQL [F38C]	0.0608	0.0628	0.0747	0.0465	0.0497	0.0498	0.037	–	0.0657	0.0641	0.0493	0.0647	0.049	0.0582	0.0507	–	0.0558	–	0.0478
MGESLFKGPRDYNPISSSICHLTNESDGHTTSLYGIGIGPFIITNKHLFRRNNGTLVVQSLHGVFKVKDTTTLQQHLVDGRDMIIIRMPKDFPPFPQKLKFREPQREERICLVTTNFQTKSMSSMVSDTSCTFPSGDGIFWKHWIQTKDGQCGSPLVSTRDGFIVGIHSASNFTNTNNYFTSVPKNFMELLTNQEAQQWVSGWRLNADSVLWGGHKVFMVKPEEPFQPVKEATQL [F38I]	0.0624	0.0581	0.0696	–	0.0564	0.056	–	0.0507	0.0529	–	0.0581	–	0.0513	–	–	0.0525	0.0707	0.0436	–
MGESLFKGPRDYNPISSSICHLTNESDGHTTSLYGIGWGPFIITNKHLFRRNNGTLVVQSLHGVFKVKDTTTLQQHLVDGRDMIIIRMPKDFPPFPQKLKFREPQREERICLVTTNFQTKSMSSMVSDTSCTFPSGDGIFWKHWIQTKDGQCGSPLVSTRDGFIVGIHSASNFTNTNNYFTSVPKNFMELLTNQEAQQWVSGWRLNADSVLWGGHKVFMVKPEEPFQPVKEATQL [F38W]	0.0594	0.0669	0.0725	–	0.0732	0.0557	0.0573	0.0516	0.0702	0.068	0.0596	0.056	0.0564	0.063	–	0.069	–	0.0757	–
MGESLFKGPRDYNPISSSICHLTNESDGNTTSLYGIGFGPFIITNKHLFRRNNGTLVVQSLHGVFKVKDTTTLQQHLVDGRDMIIIRMPKDFPPFPQKLKFREPQREERICLVTTNFQTKSMSSMVSDTSCTFPSGDGIFWKHWIQTKDGQCGSPLVSTRDGFIVGIHSASNFTNTNNYFTSVPKNFMELLTNQEAQQWVSGWRLNADSVLWGGHKVFMVKPEEPFQPVKEATQL [H29N]	0.0568	0.0419	0.077	–	–	0.043	0.0658	0.0342	0.0708	0.0822	0.0634	0.0541	0.0585	0.0424	–	0.0582	–	0.0544	0.0524
MGESLFKGPRDYNPISSSICHLTNESDGCTTSLYGIGFGPFIITNKHLFRRNNGTLVVQSLHGVFKVKDTTTLQQHLVDGRDMIIIRMPKDFPPFPQKLKFREPQREERICLVTTNFQTKSMSSMVSDTSCTFPSGDGIFWKHWIQTKDGQCGSPLVSTRDGFIVGIHSASNFTNTNNYFTSVPKNFMELLTNQEAQQWVSGWRLNADSVLWGGHKVFMVKPEEPFQPVKEATQL [H29C]	0.0702	0.0623	0.0806	0.0543	0.0566	0.0575	0.0634	0.0584	0.0669	–	0.064	0.0593	0.0581	0.0556	0.0525	0.0709	0.0594	0.0565	0.0663
